According to the supplement of paper PMC12217912:
Some of the results follow. The full chains were built here from the parent and the listed change. Inactive controls read about 0.05.

B1: TEV protease; numbered along this chain (parent)
chain: MGESLFKGPRDYNPISSSICHLTNESDGHTTSLYGIGFGPFIITNKHLFRRNNGTLVVQSLHGVFKVKDTTTLQQHLVDGRDMIIIRMPKDFPPFPQKLKFREPQREERICLVTTNFQTKSMSSMVSDTSCTFPSGDGIFWKHWIQTKDGQCGSPLVSTRDGFIVGIHSASNFTNTNNYFTSVPKNFMELLTNQEAQQWVSGWRLNADSVLWGGHKVFMVKPEEPFQPVKEATQL

Variants of: B1
Experiment: raw area under fraction-flipped curve 0-4 h after induction (AUC4h, not background-subtracted), DNA-recorder readout of cleavage of the substrate (dimensionless); higher = more cleavage of the substrate by the protease variant
Settings: temperature: 34 °C; time window: 0-4 h after rhamnose induction
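Also: Bxb1 expression induced with 0.2% (w/v) L-rhamnose at OD600 near 0.5, cultures sampled hourly, flipped fraction per protease–substrate barcode pair counted by paired-end Illumina sequencing.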

Variant | area with substrate ENLYFFS | area with substrate ENLYFGS | area with substrate ENLYFHS | area with substrate ENLYFIS | area with substrate ENLYFKS | area with substrate ENLYFLS | area with substrate ENLYFMS | area with substrate ENLYFRS | area with substrate ENLYFSS | area with substrate ENLYFTS | area with substrate ENLYFWS | area with substrate ENLYFES | area with substrate ENLYFNS | area with substrate ENLYFPS | area with substrate ENLYFYS | area with substrate ENLYFVS
G80R | 0.0643 | 0.0625 | 0.057 | 0.0548 | 0.0486 | 0.0577 | 0.0612 | 0.0469 | 0.0498 | 0.0558 | 0.0449 |  |  |  |  | 
L211V | 0.0592 | 0.0339 |  |  |  |  | 0.0701 | 0.0624 |  |  | 0.0591 | 0.071 | 0.0507 | 0.0629 | 0.0536 | 
G136M |  | 0.0627 |  | 0.0668 |  |  | 0.0755 |  | 0.0615 | 0.0489 | 0.0517 |  |  | 0.0576 | 0.0738 | 
S124E | 0.0635 |  | 0.0525 | 0.0554 | 0.0653 |  |  | 0.203 | 0.065 |  | 0.0538 | 0.0508 |  |  | 0.0637 | 
Y179L | 0.0648 |  | 0.0551 | 0.0534 | 0.0471 | 0.0513 | 0.0706 |  | 0.0563 | 0.0577 |  | 0.0609 | 0.058 |  | 0.0557 | 
Q194P | 0.0618 |  | 0.0588 | 0.0626 | 0.0603 | 0.073 | 0.0545 | 0.0576 |  | 0.0513 | 0.0394 |  |  | 0.0595 | 0.0535 | 0.0611
W141G | 0.0607 |  | 0.0561 | 0.0534 | 0.0395 |  | 0.0554 |  | 0.0514 | 0.0524 | 0.0496 | 0.0484 | 0.0687 | 0.0595 | 0.0454 | 
N193I | 0.0688 |  |  | 0.0631 |  |  | 0.0674 | 0.0403 |  | 0.0658 |  | 0.0603 | 0.075 | 0.0573 |  | 0.0511
K148F | 0.0883 |  |  | 0.0564 | 0.0699 |  | 0.0705 |  |  | 0.0633 | 0.0648 |  | 0.0696 | 0.0689 |  | 
F226A | 0.0991 |  |  | 0.0514 | 0.0628 |  | 0.0548 |  |  | 0.0458 |  | 0.0734 | 0.0651 | 0.0653 | 0.0441 | 0.0642
D79I | 0.0976 |  |  | 0.0504 |  |  |  | 0.0746 | 0.0425 |  | 0.0671 |  |  | 0.0552 |  | 
G8R | 0.0624 |  |  |  |  |  | 0.0656 | 0.0826 |  | 0.0714 |  |  | 0.0604 |  |  | 
K100S |  |  | 0.0599 | 0.0581 | 0.0369 |  | 0.119 | 0.0671 |  | 0.0809 |  |  | 0.0614 | 0.0708 | 0.0606 | 0.0281
F180P |  | 0.0464 |  | 0.0437 | 0.0504 | 0.0577 | 0.059 | 0.0544 |  |  |  | 0.0503 | 0.0566 |  |  | 0.0467
N175T | 0.0752 |  | 0.0702 | 0.0561 | 0.0582 |  | 0.0584 | 0.0586 |  |  | 0.0613 | 0.0449 | 0.0618 | 0.0697 |  | 0.0526
G202L | 0.0798 |  |  | 0.0599 | 0.0706 |  | 0.0658 |  |  |  | 0.0599 | 0.0043 | 0.0664 | 0.0631 |  | 0.0606
S182A | 0.0598 |  |  | 0.055 | 0.0601 |  | 0.0694 |  |  |  |  | 0.0636 |  | 0.0567 |  | 
K66I |  |  |  | 0.0558 | 0.0782 |  | 0.0683 |  |  | 0.0603 | 0.0684 |  |  | 0.0611 | 0.0539 | 0.0627
C131T |  |  | 0.0558 | 0.0584 |  |  | 0.0854 | 0.0495 | 0.0679 |  |  |  | 0.071 |  |  | 
C131S | 0.0499 |  |  |  |  |  | 0.0667 | 0.0588 |  |  |  |  | 0.0766 |  | 0.0551 | 
G214A | 0.0728 |  |  | 0.053 | 0.0547 |  | 0.0617 |  | 0.0461 | 0.0554 | 0.0524 |  | 0.0639 | 0.0585 | 0.0708 | 
S154P | 0.0628 |  | 0.0444 | 0.0622 |  |  | 0.0556 | 0.0642 | 0.0678 | 0.0585 | 0.0615 |  | 0.055 |  |  | 0.0651
